{"source": "paper PMC4336329", "about": "(PLoS ONE, 2015)", "note": "In all, about 310,000 compounds went through this assay and about 14,000 (4.5%) showed an effect of 50% or more. Effects have a minus sign here. The list shows a part of the results.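 Note: peak tail current of the secondary pulse compared with the same well before compound.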", "data": [{"biological_target": "human ether-à-go-go-related gene (hERG) potassium channel (human, UniProt Q12809)", "sequence (Q12809 whole entry, looked up)": "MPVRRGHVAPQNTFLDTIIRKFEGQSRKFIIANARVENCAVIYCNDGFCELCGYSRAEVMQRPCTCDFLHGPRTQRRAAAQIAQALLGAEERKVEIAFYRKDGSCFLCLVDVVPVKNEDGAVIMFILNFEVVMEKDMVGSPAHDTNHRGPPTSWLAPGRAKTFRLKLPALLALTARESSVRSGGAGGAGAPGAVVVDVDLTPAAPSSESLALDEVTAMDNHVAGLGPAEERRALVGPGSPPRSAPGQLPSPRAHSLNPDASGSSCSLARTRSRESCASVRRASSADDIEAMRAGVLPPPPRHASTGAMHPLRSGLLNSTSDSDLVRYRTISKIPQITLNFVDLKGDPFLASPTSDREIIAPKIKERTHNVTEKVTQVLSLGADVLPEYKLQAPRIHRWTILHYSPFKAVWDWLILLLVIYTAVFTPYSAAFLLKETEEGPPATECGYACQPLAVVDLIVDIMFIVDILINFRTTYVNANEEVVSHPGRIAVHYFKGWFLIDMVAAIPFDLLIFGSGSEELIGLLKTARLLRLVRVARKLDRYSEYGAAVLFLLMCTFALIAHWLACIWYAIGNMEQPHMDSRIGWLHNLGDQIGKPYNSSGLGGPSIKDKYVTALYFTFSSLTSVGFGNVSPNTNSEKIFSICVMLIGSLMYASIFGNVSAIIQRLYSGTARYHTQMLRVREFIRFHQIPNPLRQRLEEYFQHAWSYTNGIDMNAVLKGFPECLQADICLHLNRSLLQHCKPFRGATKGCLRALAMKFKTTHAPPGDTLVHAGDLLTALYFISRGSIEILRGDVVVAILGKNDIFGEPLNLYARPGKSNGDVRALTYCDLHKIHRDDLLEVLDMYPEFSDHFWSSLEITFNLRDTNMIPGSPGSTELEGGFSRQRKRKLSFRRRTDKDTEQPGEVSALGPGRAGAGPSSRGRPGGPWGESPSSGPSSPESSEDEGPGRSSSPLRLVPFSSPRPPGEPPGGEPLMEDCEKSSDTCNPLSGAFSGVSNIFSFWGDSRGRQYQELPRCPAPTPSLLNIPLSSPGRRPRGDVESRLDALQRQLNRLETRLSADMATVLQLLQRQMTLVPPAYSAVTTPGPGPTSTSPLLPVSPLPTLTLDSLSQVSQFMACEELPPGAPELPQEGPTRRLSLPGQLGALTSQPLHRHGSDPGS", "assay": "primary screen, population patch clamp on CHO cells stably expressing hERG", "units": {"hERG current change (%, negative = inhibition) at 10uM": "%"}, "values": [{"smiles": "Cn1ccnc1CC(O)(c1ccccc1)c1ccccc1", "hERG current change (%, negative = inhibition) at 10uM": -7.49}, {"smiles": "CC(C)CC1NC(=O)c2ccccc2-n2c1nc1cc(F)ccc1c2=O", "note": "(stereo not drawn)", "hERG current change (%, negative = inhibition) at 10uM": -15}, {"smiles": "CC(C)OCCCNC(=O)c1cc(S(=O)(=O)N2CCCCC2)c[nH]1", "hERG current change (%, negative = inhibition) at 10uM": -5.43}, {"smiles": "O=C(NCc1ccncc1)Nc1ccc(F)cc1", "hERG current change (%, negative = inhibition) at 10uM": 17.2}, {"smiles": "CCc1ccccc1NC(=O)N[C@H](C(=O)O)C(C)CC", "note": "(stereo partly drawn)", "hERG current change (%, negative = inhibition) at 10uM": -3.02}, {"smiles": "CC(=C\\c1ccccc1)/C=C1/SC(=S)N(CCC(=O)O)C1=O", "hERG current change (%, negative = inhibition) at 10uM": 4.16}, {"smiles": "CN(C(=O)c1ccc(S(=O)(=O)NC2CCCC2)cc1)C1CCCCC1", "hERG current change (%, negative = inhibition) at 10uM": -12.8}, {"smiles": "CCc1ccc2nc(N)sc2c1", "hERG current change (%, negative = inhibition) at 10uM": 18.7}, {"smiles": "CC(C)Oc1ccc(C(CC(=O)N(C)CCC#N)c2ccc(F)cc2)cc1", "note": "(stereo not drawn)", "hERG current change (%, negative = inhibition) at 10uM": -59.2}, {"smiles": "C/C(=N\\NS(=O)(=O)c1ccc(Cl)c([N+](=O)[O-])c1)c1cc2ccccc2o1", "hERG current change (%, negative = inhibition) at 10uM": 6.01}, {"smiles": "Cn1nccc1C(=O)Nc1sc2c(c1C(N)=O)CCCC2", "hERG current change (%, negative = inhibition) at 10uM": -7.97}, {"smiles": "C=CCOC(=O)C1=C(C)NC(SCC(=O)Nc2ccccc2)=C(C#N)C1c1ccco1", "note": "(stereo not drawn)", "hERG current change (%, negative = inhibition) at 10uM": -15.1}, {"smiles": "CS(=O)(=O)N(CC(=O)NC1CCCC1)Cc1ccc(Cl)cc1", "hERG current change (%, negative = inhibition) at 10uM": -14.5}, {"smiles": "CCOC(=O)CS(=O)(=O)c1nc(-c2ccccc2)cc(C(F)(F)F)n1", "hERG current change (%, negative = inhibition) at 10uM": -26.6}, {"smiles": "Cc1ccc(C(=O)Nc2cccc(S(=O)(=O)N(C)c3ccccc3)c2)o1", "hERG current change (%, negative = inhibition) at 10uM": -31.3}, {"smiles": "Cn1nc2sc3ccccc3n2c(=O)c1=O", "hERG current change (%, negative = inhibition) at 10uM": 18}, {"smiles": "CC1=C/C(=N\\Nc2ccccc2[N+](=O)[O-])CC(C)(C)C1", "hERG current change (%, negative = inhibition) at 10uM": 7.91}, {"smiles": "CCn1c2ccc(C)cc2c2nnc(SCCN3CCOCC3)nc21", "hERG current change (%, negative = inhibition) at 10uM": -13.8}, {"smiles": "Fc1ccccc1CNc1ncnc2sccc12", "hERG current change (%, negative = inhibition) at 10uM": 11.9}, {"smiles": "O/N=C/c1cc(Cl)ccc1OCc1cccc2ccccc12", "hERG current change (%, negative = inhibition) at 10uM": -3.04}, {"smiles": "Cn1c(=O)n(Cc2ccc(F)cc2)c(=O)c2c1nc1n2CCCN1C1CCCCC1", "hERG current change (%, negative = inhibition) at 10uM": -4.76}, {"smiles": "COC(=O)CCC(=O)Nc1cccc([N+](=O)[O-])c1", "hERG current change (%, negative = inhibition) at 10uM": 5.87}, {"smiles": "CSCCC(NC(=O)c1ccco1)C(=O)NCC(C)(C)N1CCOCC1", "note": "(stereo not drawn)", "hERG current change (%, negative = inhibition) at 10uM": -1.09}, {"smiles": "Cc1ccc(NC(=O)COC(=O)C2=COCCO2)c([N+](=O)[O-])c1", "hERG current change (%, negative = inhibition) at 10uM": 42}, {"smiles": "COc1cccc(-n2c(Cn3nc(C(F)(F)F)cc3C)n[nH]c2=S)c1", "hERG current change (%, negative = inhibition) at 10uM": 10.7}, {"smiles": "CC1(C)CC(NC(=O)c2cccc(S(=O)(=O)Nc3cccc(Cl)c3)c2)CC(C)(C)N1", "hERG current change (%, negative = inhibition) at 10uM": 2.63}, {"smiles": "COc1cc(-c2nnc3sc(-c4ccco4)nn23)cc(OC)c1OC", "hERG current change (%, negative = inhibition) at 10uM": 2.94}, {"smiles": "CCCCOc1ccc(/C(N)=N/O)cc1", "hERG current change (%, negative = inhibition) at 10uM": -0.207}, {"smiles": "CCOc1ccc(NC(=O)c2c(NC(=O)CN3CCN(C)CC3)sc3c2CCC3)cc1", "hERG current change (%, negative = inhibition) at 10uM": -72.7}, {"smiles": "O=C(CSc1ccccc1)NC1CCCCCC1", "hERG current change (%, negative = inhibition) at 10uM": 2.02}, {"smiles": "Cc1cc(C(=O)Nc2ccc(N3CCCC3)c(Cl)c2)ccc1[N+](=O)[O-]", "hERG current change (%, negative = inhibition) at 10uM": 14.3}, {"smiles": "CCCCN(C(=O)CC1OC(=O)c2ccccc21)c1c(N)n(CCCC)c(=O)[nH]c1=O", "note": "(stereo not drawn)", "hERG current change (%, negative = inhibition) at 10uM": 6.29}, {"smiles": "COc1cc(OC)cc(C(=O)Nn2cc(C(=O)Nc3ccccc3F)c3ccccc3c2=O)c1", "hERG current change (%, negative = inhibition) at 10uM": -2.36}, {"smiles": "Cc1ccc(C(=O)CN(C(=O)c2ccc(Cl)c(Cl)c2)N2C(=O)C3C4C=CC(C4)C3C2=O)cc1", "note": "(stereo not drawn)", "hERG current change (%, negative = inhibition) at 10uM": 11.3}, {"smiles": "O=C(Nc1ccnn1C1CCN(Cc2cccc(O)c2)CC1)C1CCCC1", "hERG current change (%, negative = inhibition) at 10uM": -36.5}, {"smiles": "O=C(COC(=O)CCc1ccc(S(=O)(=O)N2CCOCC2)cc1)NC(=O)NC1CCCCC1", "hERG current change (%, negative = inhibition) at 10uM": 3.67}, {"smiles": "CSc1cccc(NC(=S)Nc2ccc(F)cc2)c1", "hERG current change (%, negative = inhibition) at 10uM": 6.95}, {"smiles": "COc1ccccc1CNS(=O)(=O)c1ccc2c(c1)N(C(C)=O)CC(C)S2", "note": "(stereo not drawn)", "hERG current change (%, negative = inhibition) at 10uM": 2.13}, {"smiles": "Cn1nc(C(=O)NCc2ccccn2)c2ccccc2c1=O", "hERG current change (%, negative = inhibition) at 10uM": -5.23}, {"smiles": "CCOc1ccc(C(=O)NCC(=O)NCC(c2cccs2)N2CCOCC2)cc1", "note": "(stereo not drawn)", "hERG current change (%, negative = inhibition) at 10uM": 4.69}, {"smiles": "CCN(CC)C1=NC=CC(c2ccccc2)=CC1C", "note": "(stereo not drawn)", "hERG current change (%, negative = inhibition) at 10uM": -55.1}, {"smiles": "CCOC(=O)N1CCN(C(=O)c2ccc(C)c(S(=O)(=O)Nc3ccccc3)c2)CC1", "hERG current change (%, negative = inhibition) at 10uM": 5.43}, {"smiles": "O=C(Nc1ccc(S(=O)(=O)N2CCCCC2)cc1)c1cccnc1Cl", "hERG current change (%, negative = inhibition) at 10uM": 6.43}, {"smiles": "O=C(c1ccccc1)N1CCN(Cc2c[nH]c3ccccc23)CC1", "hERG current change (%, negative = inhibition) at 10uM": -16.4}, {"smiles": "O=C1CCCN1CCCNc1ncnc2sccc12", "hERG current change (%, negative = inhibition) at 10uM": 3.29}, {"smiles": "CCOC(=O)N1CCN(CC(=O)c2ccc3c(c2)CCN3C(C)=O)CC1", "hERG current change (%, negative = inhibition) at 10uM": 8.95}, {"smiles": "C=CCn1c(Cc2cccs2)nnc1SCC(=O)Nc1ccc(C(=O)OCC)cc1", "hERG current change (%, negative = inhibition) at 10uM": -15.2}, {"smiles": "CSCCC(NS(=O)(=O)c1ccc(C)c(C(=O)O)c1)C(=O)O", "note": "(stereo not drawn)", "hERG current change (%, negative = inhibition) at 10uM": 30.3}, {"smiles": "CCc1nccn1CCC(=O)NC1CC(C)(C)Cc2c1cnn2-c1ccc(C)cc1", "note": "(stereo not drawn)", "hERG current change (%, negative = inhibition) at 10uM": -22.1}, {"smiles": "COC(=O)CN1C(=O)N/C(=C/c2ccc(OC)cc2)C1=O", "hERG current change (%, negative = inhibition) at 10uM": 6.05}, {"smiles": "O=C(CN(Cc1ccccc1)S(=O)(=O)c1ccc(Cl)cc1)NCC1CCCO1", "note": "(stereo not drawn)", "hERG current change (%, negative = inhibition) at 10uM": -9.79}, {"smiles": "CN(CC1CCN(CCc2cccc(C(F)(F)F)c2)CC1)C(=O)c1ccccc1", "hERG current change (%, negative = inhibition) at 10uM": -68.5}, {"smiles": "CC(=O)c1cccc(N(C(=O)c2ccccn2)C(C(=O)NC2CCCCC2)c2cccs2)c1", "note": "(stereo not drawn)", "hERG current change (%, negative = inhibition) at 10uM": -0.488}, {"smiles": "CC(SCc1ccccc1)C(=O)NN=C1CCN(C)CC1", "note": "(stereo not drawn)", "hERG current change (%, negative = inhibition) at 10uM": 1.75}, {"smiles": "NS(=O)(=O)c1ccc(CCNC(=O)c2cc([N+](=O)[O-])ccc2N2CCCCC2)cc1", "hERG current change (%, negative = inhibition) at 10uM": -37}, {"smiles": "O=C(CC1SC(=Nc2ccccc2)N(CCc2ccccn2)C1=O)Nc1ccc(F)cc1", "note": "(stereo not drawn)", "hERG current change (%, negative = inhibition) at 10uM": -22.5}, {"smiles": "O=C(C1CCCN(CCCc2ccccc2)C1)N1CCCCC1", "note": "(stereo not drawn)", "hERG current change (%, negative = inhibition) at 10uM": -38.8}]}]}
